The text below walks through data of patent US20070134261A1, “Effectors of innate immunity” (priority 2001, published 2007).

Residues, ends and D or L forms follow the SMILES beside them. No end group written: not given here.

Data set [1] has as its system RAW 264.7 cells. In words: Confirmation of array data: Northern blot, Western blot, Griess reagent NO (Table 59). It counts as cell-based, mouse. The following applies: S. typhimurium LPS 100 ng/ml, S. aureus LTA 1 μg/ml, CpG DNA 1 μM, ± standard error. As to the method:
To confirm and assess the functional significance of these changes, the levels of selected mRNAs and proteins were assessed and quantified by densitometry. Northern blots using a CD14, vimentin, and tristetraprolin-specific probe confirmed similar expression after stimulation with all 3 bacterial products (Table 60). […] Western blot analysis confirmed the preferential stimulation of leukaemia inhibitory factor (LIF, a member of the IL-6 family of cytokines) by CpG (Table 59). […] The analysis was expanded to a more clinically relevant ex vivo system, by examining the ability of the bacterial elements to stimulate pro-inflammatory cytokine production in whole human blood. […] CpG also stimulated production of these cytokines, albeit to much lower levels, confirming in part the cell line data.
In general terms: A western blot detects proteins with antibodies after separation by electrophoresis.

In data set [2] the test system is RAW 264.7 mouse macrophage cells. In words: TNF-α production induced by S. aureus LTA in RAW 264.7 cells. The class given is cell-based. As to the method:
The ability of compounds to neutralize the stimulation of immune cells by both Gram-negative and Gram-positive bacterial products was tested. Bacterial products stimulate cells of the immune system to produce inflammatory cytokines and when unchecked this can lead to sepsis. Initial experiments utilized the murine macrophage cell line RAW 264.7, which was obtained from the American Type Culture Collection, (Manassas, Va.), the human epithelial cell line, A549, and primary macrophages derived from the bone marrow of BALB/c mice (Charles River Laboratories, Wilmington, Mass.). The cells from mouse bone marrow were cultured in 150-mm plates in Dulbecco's modified Eagle medium (DMEM; Life Technologies, Burlington, ON) supplemented with 20% FBS (Sigma Chemical Co, St. Louis, Mo.) and 20% L cell-conditioned medium as a source of M-CSF. Once macrophages were 60-80% confluent, they were deprived of L cell-conditioned medium for 14-16 h to render the cells quiescent and then were subjected to treatments with 100 ng/ml LPS or 100 ng/ml LPS+20 μg/ml peptide for 24 hours. The release of cytokines into the culture supernatant was determined by ELISA (R&D Systems, Minneapolis, Minn.). […] The samples were centrifuged for 5 min at 2000×g, the plasma was collected and then stored at −20° C. until being analyzed for IL-8 by ELISA (R&D Systems). […] Survival was monitored for 48 hours post injection.

Data set [3] relates to RAW 264.7 cells. Put plainly: TNF-α induction by peptides alone in RAW 264.7 cells and bone marrow-derived macrophages. The class given is cell-based, mouse. The following applies: peptide 40 μg/ml, 6 hours. On the procedure:
The murine macrophage cell line RAW 264.7, THP-1 cells (human monocytes), a human epithelial cell line (A549), human bronchial epithelial cells (16HBEo14), and whole human blood were used. HBE cells were grown in MEM with Earle's. THP-1 cells were grown and maintained in RPMI 1640 medium. The RAW and A549 cell lines were maintained in DMEM supplemented with 10% fetal calf serum. […] DMEM was aspirated from cells grown overnight and replaced with fresh medium. After incubation of the cells with peptide, the release of chemokines into the culture supernatant was determined by ELISA (R&D Systems, Minneapolis, Minn.).

On to “5′-TCATGACGTTCCTGACGTT-3′ (chemistry not given here) [CpG]”, for which, in the data set on RAW 264.7 cells [1] (4 hr, compared to media (1.0)), the “Relative levels, CD14 (Northern blot, densitometry)” value stood at 1.5 ± 0.3; the “Relative levels, Tristetraprolin (Northern blot, densitometry)” value is 9.5 ± 1.5; the “Relative levels, Vimentin (Northern blot, densitometry)” value amounted to 1.3 ± 0.07. In addition, the “Relative levels, LIF (western blot, densitometry)” value in the data set on RAW 264.7 cells [1] (24 hours, compared to media (1.0)) worked out at 5.1 ± 1.6. In addition, the “NO formed in the supernatant (nitrite, Griess reagent)” value in the data set on RAW 264.7 cells [1] (24 hours, untreated 8 ± 1.5) was found to be 21 ± 1.5. Turning to `CC[C@H](C)[C@H](N)C(=O)N[C@@H](CC(C)C)C(=O)N1CCC[C@H]1C(=O)N[C@@H](Cc1c[nH]c2ccccc12)C(=O)N[C@@H](CCCCN)C(=O)N[C@@H](Cc1c[nH]c2ccccc12)C(=O)N1CCC[C@H]1C(=O)N[C@@H](Cc1c[nH]c2ccccc12)C(=O)N[C@@H](Cc1c[nH]c2ccccc12)C(=O)N1CCC[C@H]1C(=O)N[C@@H](Cc1c[nH]c2ccccc12)C(=O)N[C@@H](CCCNC(=N)N)C(=O)N[C@@H](CCCNC(=N)N)C(N)=O` [SEQ ID NO: 2], in data set [2], the “LTA-induced TNF-α production” value is on record as “reduce”. In the data set with RAW 264.7 cells [3], `CC[C@H](C)[C@H](NC(=O)[C@H](CCCNC(=N)N)NC(=O)[C@H](CS)NC(=O)[C@H](CC(C)C)NC(=O)[C@@H](N)CC(C)C)C(=O)N[C@H](C(=O)N1CCC[C@H]1C(=O)N[C@H](C(=O)N[C@H](C(=O)N1CCC[C@H]1C(=O)N[C@@H](Cc1c[nH]c2ccccc12)C(=O)N[C@@H](CS)C(=O)N[C@@H](CCCCN)C(=O)O)[C@@H](C)CC)C(C)C)C(C)C` [SEQ ID NO: 5] (H-LLCRIVPVIPWCK-OH; N-terminus and C-terminus assumed) showed a TNF-α of 223 ± 45 pg/mL.

As to `CC[C@H](C)[C@H](NC(=O)[C@@H]1CCCN1C(=O)[C@H](CS)NC(=O)[C@H](CCCNC(=N)N)NC(=O)[C@@H](N)CC(C)C)C(=O)N[C@@H](C)C(=O)N1CCC[C@H]1C(=O)N[C@H](C(=O)N[C@H](C(=O)N1CCC[C@H]1C(=O)N[C@H](C(=O)N[C@@H](CS)C(=O)N[C@@H](CCCCN)C(=O)N[C@@H](CCCCN)C(=O)O)C(C)C)[C@@H](C)CC)C(C)C` [SEQ ID NO: 6] (H-LRCPIAPVIPVCKK-OH; N-terminus and C-terminus assumed), the TNF-α with RAW 264.7 cells [3] was 297 ± 32 pg/mL.

On to `CC[C@H](C)[C@H](NC(=O)[C@H](CS)NC(=O)[C@H](CCSC)NC(=O)[C@H](CCCNC(=N)N)NC(=O)[C@@H](N)CCCNC(=N)N)C(=O)N[C@@H](CCCCN)C(=O)N[C@H](C(=O)N[C@@H](CS)C(=O)N[C@H](C(=O)N[C@@H](CCCNC(=N)N)C(=O)NCC(=O)N[C@H](C(=O)N[C@@H](CS)C(=O)N[C@@H](CCCNC(=N)N)C(=O)N[C@@H](CCCNC(=N)N)C(=O)N[C@@H](CCCCN)C(=O)N[C@@H](CS)C(=O)N[C@@H](CCCNC(=N)N)C(=O)N[C@@H](CCCCN)C(=O)O)C(C)C)C(C)C)C(C)C` [SEQ ID NO: 26] (H-RRMCIKVCVRGVCRRKCRK-OH; N-terminus and C-terminus assumed), for which, in the data set with RAW 264.7 cells [3], the TNF-α was found to be 281 ± 34 pg/mL. Molecule `CSCC[C@H](NC(=O)[C@H](CO)NC(=O)[C@@H](NC(=O)[C@H](CCCCN)NC(=O)[C@H](Cc1ccccc1)NC(=O)[C@H](CS)NC(=O)[C@H](CO)NC(=O)[C@H](CCCNC(=N)N)NC(=O)[C@@H](N)CCCCN)C(C)C)C(=O)N[C@@H](CCCNC(=N)N)C(=O)NCC(=O)N[C@H](C(=O)N[C@@H](CO)C(=O)N[C@@H](CCCNC(=N)N)C(=O)N[C@@H](CCCNC(=N)N)C(=O)N[C@@H](CCCNC(=N)N)C(=O)N[C@@H](CS)C(=O)N[C@@H](CCCCN)C(=O)O)C(C)C` [SEQ ID NO: 27] (H-KRSCFKVSMRGVSRRRCK-OH; N-terminus and C-terminus assumed) showed a TNF-α in the data set with RAW 264.7 cells [3] of 203 ± 42 pg/mL. The molecule `CC[C@H](C)[C@H](NC(=O)CNC(=O)[C@H](CCCNC(=N)N)NC(=O)[C@H](CCSC)NC(=O)[C@H](C)NC(=O)[C@@H](NC(=O)[C@H](CCCNC(=N)N)NC(=O)[C@H](CCCCN)NC(=O)[C@@H](NC(=O)[C@H](CS)NC(=O)[C@@H](NC(=O)[C@@H](N)CCCNC(=N)N)[C@@H](C)O)C(C)C)C(C)C)C(=O)N[C@H](C(=O)N[C@@H](CCCNC(=N)N)C(=O)N[C@@H](CCCCN)C(=O)N[C@@H](CCCNC(=N)N)C(=O)N[C@@H](CS)C(=O)N[C@@H](CCCNC(=N)N)C(=O)O)[C@@H](C)CC` [SEQ ID NO: 33] (H-RTCVKRVAMRGIIRKRCR-OH; N-terminus and C-terminus assumed) yielded a TNF-α with RAW 264.7 cells [3] of 196 ± 42 pg/mL.

As for “DLPAKRGSAPGST (Cationic peptide) [SEQ ID NO: 12, Formula B cationic peptide]”, the TNF-α with RAW 264.7 cells [3] came to 299 ± 65 pg/mL. For the molecule “KKSPIAPAIPWSR (Cationic peptide) [SEQ ID NO: 8, Formula A cationic peptide]”, the TNF-α in the data set on RAW 264.7 cells [3] came out at 166 ± 23 pg/mL. For the molecule “KWKKWAHSPRKVLTRIFHTALKPISS [SEQ ID NO: 50]”, the TNF-α with RAW 264.7 cells [3] was determined as 311 ± 144 pg/mL.

Take “KWKRGAHRFMKFLSTIFHTALKPISS [SEQ ID NO: 49]”: the TNF-α in the data set on RAW 264.7 cells [3] worked out at 324 ± 38 pg/mL. “KWKSYAHTIMSPVRLVFHTALKPISS [SEQ ID NO: 54]”: in the data set on RAW 264.7 cells [3], the TNF-α worked out at 346 ± 86 pg/mL. Molecule SLPIKHDRLPATS [SEQ ID NO: 15] yielded a TNF-α in the data set on RAW 264.7 cells [3] of 346 ± 41 pg/mL.
